The source of these data is PubChem BioAssay AID488969 (Vanderbilt High Throughput Screening Facility, 2010).

In all, about 110,000 compounds were measured (“z-score”: median about -0.1, highest 2% from about 2 on). This is one part of the list.

For the assay, the target named is Metabotropic glutamate receptor 8 (Rattus norvegicus) (UniProt P70579). In words: mGluR8 Gi/Go-coupled signaling modulation – cell-based, rat, thallium flux, HTS, primary screen (AID 488969). As to conditions: HEK293 rat mGluR8, GIRK (G protein-gated inwardly rectifying potassium channel) thallium flux, FluoZin2; at 10 µM; stronger effect = higher value; submaximal glutamate (EC20) added with thallium.
UniProt P70579, sequence (P70579 whole entry, looked up): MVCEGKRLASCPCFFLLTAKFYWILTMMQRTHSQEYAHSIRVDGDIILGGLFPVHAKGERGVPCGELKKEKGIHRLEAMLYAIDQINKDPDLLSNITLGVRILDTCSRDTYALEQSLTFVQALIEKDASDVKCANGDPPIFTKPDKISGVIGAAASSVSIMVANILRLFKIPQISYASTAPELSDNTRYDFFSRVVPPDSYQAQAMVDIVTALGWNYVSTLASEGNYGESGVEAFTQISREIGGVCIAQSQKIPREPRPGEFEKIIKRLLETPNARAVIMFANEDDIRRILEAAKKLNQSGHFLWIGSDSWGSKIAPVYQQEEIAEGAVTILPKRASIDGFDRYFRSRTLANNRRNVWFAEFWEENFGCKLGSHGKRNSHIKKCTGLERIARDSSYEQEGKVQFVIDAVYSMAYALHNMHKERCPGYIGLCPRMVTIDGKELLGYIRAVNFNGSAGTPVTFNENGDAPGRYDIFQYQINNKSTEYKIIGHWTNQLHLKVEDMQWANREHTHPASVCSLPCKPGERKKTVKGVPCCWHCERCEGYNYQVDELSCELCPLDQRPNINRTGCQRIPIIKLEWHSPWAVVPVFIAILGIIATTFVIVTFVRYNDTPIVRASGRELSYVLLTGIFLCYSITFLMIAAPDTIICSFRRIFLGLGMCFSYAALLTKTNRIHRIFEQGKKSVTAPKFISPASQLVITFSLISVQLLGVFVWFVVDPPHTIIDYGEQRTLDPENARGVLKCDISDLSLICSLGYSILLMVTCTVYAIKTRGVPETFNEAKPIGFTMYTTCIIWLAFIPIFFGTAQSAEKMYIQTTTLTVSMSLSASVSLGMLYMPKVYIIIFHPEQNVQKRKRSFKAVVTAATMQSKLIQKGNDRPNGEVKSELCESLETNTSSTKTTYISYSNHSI
`COc1cc(NC(=O)C/C(C)=N/NC(=O)Cc2ccccc2)c(OC)cc1Cl` had a z-score of 0.0355.
With `Cc1ccc(NC(=O)C(=O)NCc2ccc(/C=C(/C#N)C(=O)NCc3cccnc3)o2)cc1C`, the z-score was -0.169.
`COc1ccc(NC(=O)C2CCC(CNc3c(N4CCC(C)CC4)c(=O)c3=O)CC2)cc1OC` (stereo not given) had a z-score of -0.262.
For `CS(=O)(=O)N1CCC(C(=O)Nc2ccc(Oc3ccccc3)cc2)CC1`, the z-score is -0.148.
`Cc1ccc2c(c1)c1c(n2CC(O)Cn2nc(C)c(Br)c2C)C(=O)CCC1` (stereo not given) showed a z-score of -0.111.
Then `O=C(Nc1ccc(S(=O)(=O)N2CCOCC2)cc1)C1CCCCC1`, with 0.469; and `O=C1/C(=C/c2ccccc2O)SC(=S)N1Cc1cccnc1`, with 0.442.
Under `O=C(/C=C/c1ccccc1)NC(NC(=S)Nc1cccc(Cl)c1)C(Cl)(Cl)Cl` (stereo not given) stands 1.36; under `CCN(CC)S(=O)(=O)c1ccc(Oc2ccc(S(=O)(=O)N(CC)CC)cc2)cc1`, 0.0506.
As to `COc1ccc(C2CC(c3ccco3)n3ncnc3N2)cc1` (stereo not given), the z-score worked out at 0.0305.
Turning to `C=C(C)Cn1c(-c2ccc(OC)cc2)nc2ccccc21`, the z-score was -1.35.
On to `CCC(=O)Nc1ccc(NC(=O)CN2CCCC(C)C2)c(Cl)c1` (stereo not given), for which the z-score was -0.146.
As for `CCOc1cc(C)ccc1OCc1nnc(SCC(=O)c2cccc([N+](=O)[O-])c2)n1C`, the z-score is -0.139.
`CCOP(=O)(OCC)C(Nc1ccccn1)c1ccc(F)cc1` (stereo not given) displayed a z-score of -0.18.
On to `COCCCn1c(-c2ccc(S(=O)(=O)N3CCOCC3)cc2)csc1=Nc1ccccc1`, for which the z-score came to 0.966.
In turn, `CC1CC1C(=O)Nc1ccc(-c2ccccc2)cc1` (stereo not given) displayed a z-score of 0.701.
Then `CCNC(=O)c1cc2c(=O)n3cccc(C)c3nc2n(Cc2ccc(C)cc2)c1=N`, with 0.832; and `O=C(NCCC1=CCCCC1)C(=O)NCc1ccccc1`, with -0.143; and `COC(=O)Cn1c(=NC(=O)C(C)C)sc2c(C)cc(C)cc21`, with -0.633.
`CCc1ccc(NC(=S)N(CCCN2CCN(C)CC2)Cc2cccs2)cc1`: the z-score was -0.882.
As for `COc1cc(C(=O)NCc2ccccn2)ccc1OCc1c(C)noc1C`, the z-score was -0.106.
Then `Cn1c(C2CC(=O)N(Cc3ccccc3)C2)nc2ccccc21` (stereo not given), with 0.114; and `CC1(C(=O)Nc2nnc(C(C)(C)C)s2)Cc2ccccc2C(=O)O1` (stereo not given), with -0.0542; and `CCn1c(CNc2ccc(F)cc2)nnc1SCC(=O)Nc1ccc(OC)cc1`, with -0.293.
`Cc1c(C(c2ccc([N+](=O)[O-])cc2)c2c(C)n(C)n(-c3ccccc3)c2=O)c(=O)n(-c2ccccc2)n1C` showed a z-score of -0.329.
`Cc1cc(C)c[n+](CC(=O)c2cc3ccccc3oc2=O)c1`: the z-score came to 0.468.
For `CCCc1nc2ccccc2c(C(=O)OC(C)C(=O)NCc2ccc3c(c2)OCO3)c1CC` (stereo not given), the z-score was -0.72.
In the case of `CCc1[nH]nc2c1C(c1cccnc1)C(C#N)=C(N)O2` (stereo not given), the z-score was found to be 0.367.
For `O=C(CCCN1C(=O)c2cccc3cccc(c23)C1=O)N1CCN(c2ccccc2O)CC1`, the z-score was -0.81.
As for `Cc1ccc(C)c2c1cc(C)c1nnc(SCC(=O)NCc3ccc4c(c3)OCO4)n12`, the z-score was -0.918.
The molecule `COc1cc(/C=N/OCC(=O)NC2CCCCC2)ccc1OCc1ccccc1` gave a z-score of -0.752.
Turning to `CCCc1cc(N2CCCC(C(=O)NCC)C2)n2ncnc2n1` (stereo not given), the z-score was -0.213.
In the case of `O=C(CCc1ccccc1)N1CCN(c2ccccn2)CC1`, the z-score was -0.254.
`COCCn1nnnc1CN1CCN2CCCC2C1` (stereo not given) registered a z-score of 0.0773.
`Clc1nc(-c2ccccc2)cc(-c2ccc(Br)cc2)n1`: the z-score was -0.242.
In turn, `CC(C)n1nnnc1SCC(=O)NCc1ccco1` yielded a z-score of 1.11.
Under `CC1=NN(c2ccccc2)C(=O)/C1=C\c1c(C)[nH]n(-c2ccccc2)c1=O` stands 1.48.
For the molecule `Cc1nc2ccccn2c1-c1csc(NCc2ccco2)n1`, the z-score is -1.95.
`COc1ccc(CCNC(=O)c2c(-c3ccccc3Cl)noc2C)cc1` had a z-score of 0.099.
In turn, `O=C(CNC(=O)c1ccc(Oc2ccccc2)cc1)OC1CCCCC1=O` (stereo not given) yielded a z-score of -0.12.
Then `Cc1ccc(NC(=O)c2cc(Cl)ccc2[N+](=O)[O-])cc1C`, with 0.0161; and `CCc1ccc(NC(=O)N(CCN2CCOCC2)Cc2ccc3c(c2)CCCN3CC)cc1`, with 0.069.
As to `CC(=O)Nc1ccc(C(=O)OCC(=O)c2ccc(C)c([N+](=O)[O-])c2)cc1`, the z-score was -0.0847.
Turning to `CC(C)N1C(=O)C2C(c3ccccc3O)NC(C)(C(=O)O)C2C1=O` (stereo not given), the z-score amounted to 0.39.
Take `Cc1nn(-c2ccccc2)c(C)c1C(=O)OCC(=O)N1c2ccccc2NC(=O)C1(C)C`: the z-score was -0.377.
The molecule `CCCNC(=O)CN(C)S(=O)(=O)c1c(C)cc(C)cc1C` returned a z-score of 0.408.
The molecule `O=C(CSc1nnc(-c2ccc(S(=O)(=O)N3CCCC3)cc2)o1)N1CCCC1` had a z-score of -0.0514.
Molecule `C=CCn1ncc(OC)c(Cl)c1=O` yielded a z-score of -0.049.
For `CCOC(=O)C1=C(C)N(CC)C(=S)NC1c1ccc(Cl)cc1` (stereo not given), the z-score was -0.658.
Molecule `CNS(=O)(=O)c1cccc(C(=O)OC2CCCCC2=O)c1` (stereo not given) displayed a z-score of 2.06.
Consider `Cc1cccc(Nc2nnc(SCC3CCCCO3)s2)c1C` (stereo not given), for which the z-score is -0.0272.
In the case of `O=C1NC(=Nc2ccccc2)S/C1=C\C=C\c1ccco1`, the z-score came out at 0.075.
Under `C(=N\NC1=Nc2cccc3cccc1c23)/c1ccccc1` stands -0.361.
With `CC(=O)c1cccc(N(CC(=O)Nc2cccnc2)S(C)(=O)=O)c1`, the z-score stood at 0.179.
On to `CCOC(=O)c1c(NC(=O)CNCC(O)CO)sc(C)c1C` (stereo not given), for which the z-score is -1.24.
`Cc1cc(S(=O)(=O)Nc2cccc(O)c2)c(C)s1`: the z-score was -0.746.
`O=C(O)c1cc2nc(-c3ccc(F)cc3)cc(C(F)(F)F)n2n1` yielded a z-score of -0.369.
Then `COc1ccc(OC)c(-c2cc(C(=O)Nc3c(C)nn(Cc4ccccc4C)c3C)no2)c1`, with -1.07; and `C/C(=N\NC(=O)Nc1ccccc1)c1ccccc1`, with -0.157.
Then `Cc1nc2c(c(-c3ccccc3)c1C#N)C(=O)c1ccccc1-2`, with -0.23.
On to `COc1ccc(NC(=O)CN(C)C2CCCCC2)c([N+](=O)[O-])c1`, for which the z-score was -0.45.
Under `CCOC(=O)Cn1nc(C)n(-c2ccc(C)cc2)c1=O` stands -0.0402; under `Cc1ccc(C)c(NC(=S)N2CCC(c3nc4ccccc4s3)CC2)c1`, 0.656.
Molecule `Cc1cc[n+](CC(=O)Nc2cc(C(F)(F)F)ccc2Cl)cc1` displayed a z-score of -0.139.
The molecule `Cc1c(C#N)c2ccccc2n1CCOc1ccccc1F` showed a z-score of -1.31.
Then `COC(=O)c1ccc(-n2nnnc2SCc2ccccc2OC)cc1`, with 0.264.
The molecule `O=C(Cc1ccc(Br)cc1)NCCc1ccc(Cl)cc1Cl` displayed a z-score of 0.0716.
As for `CCOC(=O)c1nn(-c2cccc(OC)c2)c(-c2ccccc2)c1C(=O)c1ccccc1`, the z-score was -0.23.
`COc1cc2c(cc1OC)C1(Nc3c-2c(C)nn3-c2ccccc2)C(=O)Nc2ccccc21` (stereo not given) gave a z-score of -0.435.
As for `CCN(CC)S(=O)(=O)c1cccc(NC(=O)C2SC(=Nc3ccc(C)cc3C)C(C(=O)NCC3CCCO3)=C2N)c1` (stereo not given), the z-score worked out at 0.215.
